The values below come from article PMC4336329 (PLoS ONE, 2015).

Among all 310,000 compounds or so, about 2,200 (0.71%) showed an effect of 50% or more. The effect is printed as a negative number. The list shows a part of the results.

For this test, the target named is human ether-à-go-go-related gene (hERG) potassium channel (human, UniProt Q12809). The experiment in a line: primary screen, population patch clamp on CHO cells stably expressing hERG.
Sequence of human ether-à-go-go-related gene (hERG) potassium channel (Q12809 whole entry, looked up): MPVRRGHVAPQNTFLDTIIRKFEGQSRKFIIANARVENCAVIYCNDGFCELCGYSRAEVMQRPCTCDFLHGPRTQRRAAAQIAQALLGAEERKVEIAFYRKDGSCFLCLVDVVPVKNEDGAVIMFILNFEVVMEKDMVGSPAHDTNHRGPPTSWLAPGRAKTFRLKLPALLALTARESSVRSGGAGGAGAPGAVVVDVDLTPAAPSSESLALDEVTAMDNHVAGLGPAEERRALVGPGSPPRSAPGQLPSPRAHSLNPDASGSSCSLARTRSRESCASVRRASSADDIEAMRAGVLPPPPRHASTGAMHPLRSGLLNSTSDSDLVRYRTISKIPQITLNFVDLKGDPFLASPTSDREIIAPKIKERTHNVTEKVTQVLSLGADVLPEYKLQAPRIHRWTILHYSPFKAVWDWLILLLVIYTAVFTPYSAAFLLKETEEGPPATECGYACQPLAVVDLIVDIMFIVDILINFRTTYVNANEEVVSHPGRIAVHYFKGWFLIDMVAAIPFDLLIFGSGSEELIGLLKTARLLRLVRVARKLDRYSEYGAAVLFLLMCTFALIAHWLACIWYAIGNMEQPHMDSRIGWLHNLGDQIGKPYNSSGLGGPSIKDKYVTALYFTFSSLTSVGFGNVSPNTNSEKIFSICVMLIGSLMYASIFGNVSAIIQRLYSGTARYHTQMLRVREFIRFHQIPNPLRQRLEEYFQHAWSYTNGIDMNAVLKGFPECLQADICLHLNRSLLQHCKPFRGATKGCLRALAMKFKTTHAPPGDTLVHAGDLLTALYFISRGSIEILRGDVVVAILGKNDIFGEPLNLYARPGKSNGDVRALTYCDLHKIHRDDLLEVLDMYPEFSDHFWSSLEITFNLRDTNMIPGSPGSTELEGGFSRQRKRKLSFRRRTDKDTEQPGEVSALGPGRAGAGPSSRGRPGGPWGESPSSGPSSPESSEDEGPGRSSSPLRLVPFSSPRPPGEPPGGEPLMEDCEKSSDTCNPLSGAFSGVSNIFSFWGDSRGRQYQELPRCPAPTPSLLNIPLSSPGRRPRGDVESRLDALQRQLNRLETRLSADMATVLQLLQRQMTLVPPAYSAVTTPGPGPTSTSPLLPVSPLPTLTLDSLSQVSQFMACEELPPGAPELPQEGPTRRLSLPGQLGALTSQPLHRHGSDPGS
`Cc1cc(C)c(S(=O)(=O)NCCC2CCCN2C)c(C)c1` (stereo not shown): the “hERG current change (%, negative = inhibition) at 1uM” value is 16.4%. As for `COc1ccc(N2CCN(C(=O)c3cc(=O)c4cc(C)cc(C)c4o3)CC2)cc1`, the “hERG current change (%, negative = inhibition) at 1uM” value is given as -2.24%.

As to `COc1ccc(OCC2CCNCC2)cc1.Cl`, the “hERG current change (%, negative = inhibition) at 1uM” value is given as 16.7%. Under `C=CCOC(=O)CCP(=O)(CCC(=O)OCC=C)c1ccccc1` stands -1.19%; under `O=[N+]([O-])c1cccc(CN2CCN(c3cccc4[nH]ccc34)CC2)c1`, 13.4%. Under `O=C(Cc1cccc(NC(=O)C2CCCN(C(=O)C3CC3)C2)c1)Nc1cccc(C(=O)N2CCCC2)c1` (stereo not shown) stands 15.7%.

Turning to `NS(=O)(=O)c1cc(C(=O)OCC(=O)NC2CC2)ccc1Cl`, the “hERG current change (%, negative = inhibition) at 1uM” value was -4.99%. With `CCCCNC(=O)CCC(=O)NNc1nc2ccccc2c2nc(C)nn12`, the “hERG current change (%, negative = inhibition) at 1uM” value worked out at 26.5%. Next, `Nc1c(-c2cccc(Cl)c2)cnc2c(-c3ccccc3)cnn12`: 10.7%; `CC12CCC(C(=O)N(NC(=O)c3cccnc3)C1=O)C2(C)C` (stereo not shown): 16.3%.

Turning to `COc1ccc(C(=O)Nc2ccnn2C2CCN(CC3CC=CCC3)CC2)cc1` (stereo not shown), the “hERG current change (%, negative = inhibition) at 1uM” value was -10.4%. In the case of `Cc1ccc(/C(O)=C2/C(=O)C(=O)N(CCN3CCOCC3)C2c2cccs2)cc1` (stereo not shown), the “hERG current change (%, negative = inhibition) at 1uM” value was found to be 14.4%. Under `CN(C(=O)COC(=O)/C=C/c1cccs1)c1c(N)n(Cc2ccccc2)c(=O)[nH]c1=O` stands 11.3%; under `Cc1cc(/C=N/NC(=O)c2cccs2)c(C)n1-c1ccccc1`, 19.4%; under `CCN(CC)S(=O)(=O)c1ccc(N=N/C(C(C)=O)=C(/C)O)cc1`, 12%. Next, `O=C(CN1C(=O)NC2(CCCC2)C1=O)N1CCN(Cc2ccccc2)CC1`: 12.5%; `O=C(NCC1CCCO1)c1cc(-c2ccc(Cl)cc2Cl)on1` (stereo not shown): 12.3%; `CCCOc1cccc(-c2nc3ccccc3c(=O)o2)c1`: 15%.

Take `O=C(CCCn1cc([N+](=O)[O-])cn1)Nc1cccnc1`: the “hERG current change (%, negative = inhibition) at 1uM” value was found to be 4.27%.

As to `c1ccc(-c2nc3ccccn3c2-c2ccccc2)cc1`, the “hERG current change (%, negative = inhibition) at 1uM” value came to 12.1%. Next, `CCOC(=O)c1ccc(NC(=O)c2nc[nH]c2C(=O)N2CCc3ccccc3C2)cc1`: 10.3%; `CCC1C(=O)NCCN1C(=O)c1cccc(OC2CCN(S(=O)(=O)N(C)C)CC2)c1` (stereo not shown): 12.8%.

In the case of `O=c1cnn(Cc2ccc(Cl)c(Cl)c2)c2ccccc12`, the “hERG current change (%, negative = inhibition) at 1uM” value is on record as 7.92%. `Cc1cc(F)ccc1S(=O)(=O)Nc1nc2ccccc2nc1Cl`: the “hERG current change (%, negative = inhibition) at 1uM” value was determined as 11.8%. Under `COc1cccc(C(=O)N(C)CC2CCN(CCc3cccc(C(F)(F)F)c3)CC2)c1` stands -70.3%.
